Test results reported in publication PMC7819943, “Rice protein-binding microarrays: a tool to detect cis-acting elements near promoter regions in rice”.
This is one part of the list.

target: T1, OsWOX13 (Oryza sativa, UniProt Q5QMM3 1-267); test: protein-binding microarray (RPBM); PBS, 2% BSA, 51.3 ng/ul salmon testes DNA, 50 uM zinc acetate, 200 nM TF, 25 C, 1 h; high values mean tight binding; conditions: protein: recombinant; tags: N-terminal polyhistidine and DsRed monomer fusion (pET32a); label: CyDye5-dUTP incorporated in the synthesized complementary strand; 3' TTTTT single-stranded linker to array surface; dsDNA, one strand shown
T1 sequence: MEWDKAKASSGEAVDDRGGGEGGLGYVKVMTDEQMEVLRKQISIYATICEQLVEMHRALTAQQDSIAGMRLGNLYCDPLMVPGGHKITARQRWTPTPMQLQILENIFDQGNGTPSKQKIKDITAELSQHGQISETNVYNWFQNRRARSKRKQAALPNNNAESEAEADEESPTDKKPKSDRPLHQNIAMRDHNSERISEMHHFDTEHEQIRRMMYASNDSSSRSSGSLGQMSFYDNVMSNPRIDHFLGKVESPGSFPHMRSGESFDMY
In short: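 Binding signal is reported as fluorescence intensity per feature (arbitrary units) from an Axon 4000B scanner. Incubation used 200 nM of each Ni–NTA-purified, N-terminally polyhistidine- and DsRed-fused transcription factor from E. coli BL21-CodonPlus on a double-stranded custom Agilent array for 1 h at 25 °C, with 50 µM zinc acetate in the buffer, followed by washing.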

Row | Sequence | binding signal
1 | GCTTGACTAACATATTCTGTTGGATTGCTACCGCGCCATGCGGAGTCACCTAGTGCAG | 7150 fluorescence intensity (a.u.)
2 | AGAAACTAATTGCATAGTTTGCATGTAAATTGAGAGACGGCGGAGTCACCTAGTGCAG | 25700 fluorescence intensity (a.u.)
3 | CTATTGATCAAACAGACAAGTATGGATGCTCACATGAGCACGGAGTCACCTAGTGCAG | 5180 fluorescence intensity (a.u.)
4 | CAAATTGGAATAACCAGCAGCGAGACAATGGAGGCAGGCACGGAGTCACCTAGTGCAG | 6250 fluorescence intensity (a.u.)
5 | CGTAATCTAGATTTGGTTTGAGGCCCTACCAAAATATTGGCGGAGTCACCTAGTGCAG | 3700 fluorescence intensity (a.u.)
6 | CTTACATGATTATCAACTTATAGTTGATTTGGGATAACCACGGAGTCACCTAGTGCAG | 34300 fluorescence intensity (a.u.)
7 | AATATCAAAATTTAATTTGAAGAATGAGATAGCCACTCTGCGGAGTCACCTAGTGCAG | 4560 fluorescence intensity (a.u.)
8 | CAATACTAAATAGATAATTGCTAGCTAATCTTCCTTGAGTCGGAGTCACCTAGTGCAG | 19900 fluorescence intensity (a.u.)
9 | ACCCTCAAATTATTTCCATAAACTCAGTTCTATCCATCACCGGAGTCACCTAGTGCAG | 7940 fluorescence intensity (a.u.)
10 | CCAGACAGGGTTATCAATCTTGTTCTTCAATACCTAACCACGGAGTCACCTAGTGCAG | 5630 fluorescence intensity (a.u.)
11 | ATGTTAATTGTAGAGCATGGCATGGATCTAAATTTGAGAGCGGAGTCACCTAGTGCAG | 19000 fluorescence intensity (a.u.)
12 | TCCTGATCAAATTTCAGGAAACATTCAGTGAGAAGGCGATCGGAGTCACCTAGTGCAG | 4280 fluorescence intensity (a.u.)
13 | TAAAATCAATTAGCTGATGAGGGAATATAAGCCTACGGGCCGGAGTCACCTAGTGCAG | 24600 fluorescence intensity (a.u.)
14 | TATACTAAATTGGAGCACGCTGATCACGTTCTGCATCAACCGGAGTCACCTAGTGCAG | 9410 fluorescence intensity (a.u.)
15 | GTACTAGATTGGAGCTTAATTTCATAAAGTCTGGTAGAGTCGGAGTCACCTAGTGCAG | 44200 fluorescence intensity (a.u.)
16 | TCCAAATTTATTTACAGCAGAGTGTACAAATCATCTAGAGCGGAGTCACCTAGTGCAG | 12100 fluorescence intensity (a.u.)
17 | ACTTTAATTTTGGTCAGCTCCCGTACATGTAGTTAACTTGCGGAGTCACCTAGTGCAG | 7810 fluorescence intensity (a.u.)
18 | AACCTAAAATTAAATTTTAAATTTTGATTCATAAGCATAACGGAGTCACCTAGTGCAG | 11600 fluorescence intensity (a.u.)
19 | ATAGATTACTTGTTTGGTGATTAAACGTTGCAACACACAGCGGAGTCACCTAGTGCAG | 22400 fluorescence intensity (a.u.)
20 | GCATCTAATTTAAACTTTCAAATCTTTCAACTCGAAAATTCGGAGTCACCTAGTGCAG | 4920 fluorescence intensity (a.u.)
21 | TTCTGTAATTGATGCTCCTGCATTTTAGTGTATAAGTGTACGGAGTCACCTAGTGCAG | 36500 fluorescence intensity (a.u.)

Row | Sequence | binding signal
22 | AGTTTAACTAAATTTGTAGAATAACATGATCAACATCTATCGGAGTCACCTAGTGCAG | 9980 fluorescence intensity (a.u.)
23 | CATAGTCACATGATGGAGATTGGAGAGTCTACTTAAGTAGCGGAGTCACCTAGTGCAG | 6700 fluorescence intensity (a.u.)
24 | AAAATTTGACAATGACAAATTTTAGAAGGGTTGAAAGTGCCGGAGTCACCTAGTGCAG | 17900 fluorescence intensity (a.u.)
25 | AATTACAAGGGCCAATCAATCAATCAATGATGGCTCGTGCCGGAGTCACCTAGTGCAG | 45300 fluorescence intensity (a.u.)
26 | ACAGTAATTAAGCATCCACAAGTACGTGACGACGCGGGCACGGAGTCACCTAGTGCAG | 9160 fluorescence intensity (a.u.)
27 | AAATAATTACACAATAATTATATGTAAATTGCGAGACGAACGGAGTCACCTAGTGCAG | 50700 fluorescence intensity (a.u.)
28 | AAATTACGTAATTATAATTTATTTTGTTGTGAGTTGTTTTCGGAGTCACCTAGTGCAG | 24100 fluorescence intensity (a.u.)
29 | ATGAGATTGATGAGCAGTGAGGACGGCTAGAGATAGCTTACGGAGTCACCTAGTGCAG | 18900 fluorescence intensity (a.u.)
30 | ATAGTATAATCAAGCTGATATAAACAAGTGCTCCCATGTGCGGAGTCACCTAGTGCAG | 3430 fluorescence intensity (a.u.)
31 | CCTAATTTACTACTGCGTCTCTTATGTTCAGTATCTGTTCCGGAGTCACCTAGTGCAG | 27500 fluorescence intensity (a.u.)
32 | TTAATTCTCATTCTTTAATTAATTTGGCCGTGGATTTATTCGGAGTCACCTAGTGCAG | 3430 fluorescence intensity (a.u.)
33 | CAAGGTAATAGATTACTATAGTTTATCAAATTCTCCATGACGGAGTCACCTAGTGCAG | 11200 fluorescence intensity (a.u.)
34 | TTCTGATTTGCCCCTATCTTATTGAGATTGCTTGTGTGATCGGAGTCACCTAGTGCAG | 30600 fluorescence intensity (a.u.)
35 | CCACAAATCAGTTCATTTGACAAGCCAACACAGTGATTAGCGGAGTCACCTAGTGCAG | 12900 fluorescence intensity (a.u.)
36 | TGTAAACTGCCTCATCAACCTTCTGCGCCCGGGCATACTTCGGAGTCACCTAGTGCAG | 4150 fluorescence intensity (a.u.)
37 | ATCCAATCATTTCAAAACGTATTCCTCAGCACATTAAACGCGGAGTCACCTAGTGCAG | 19400 fluorescence intensity (a.u.)
38 | CCGATTCAAATTTGAATTTAAATATTTTCTATATATAGTACGGAGTCACCTAGTGCAG | 3280 fluorescence intensity (a.u.)
39 | CCAATAGACAATTTTGACTATGACAGAAGGACAAGCTATACGGAGTCACCTAGTGCAG | 8840 fluorescence intensity (a.u.)
40 | TCATTAACAGCAGCAAATCAGCAGAAGCACTGCTGATCTTCGGAGTCACCTAGTGCAG | 6140 fluorescence intensity (a.u.)
41 | TTTCCAGTTAACAGATGATTCCCAAGTTATGGTCAAAACACGGAGTCACCTAGTGCAG | 9050 fluorescence intensity (a.u.)
42 | AAGCTATGATGATTAGTGAAACAAAAGCAATGCTGGAAGACGGAGTCACCTAGTGCAG | 7030 fluorescence intensity (a.u.)
